The values below come from the supplement of paper PMC7726561.

The full ranking holds about 1,100 sequences; the median of “thermal melting temperature (Tm) of peptide-HLA complex” is about 58, and the lowest 2% start at about 42. This is one part of the list.
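Note: cell lysates heated 10 min at 37–73 °C, remaining pHLA pulled down with pan-class I antibody, peptides quantified by DIA-MS versus 37 °C, Tm where half the complex is lost.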

For the assay, the target named is HLA-A*02:01. As to the kind of experiment: thermal melting temperature (Tm) of peptide-HLA complex; higher = more thermostable pHLA complex. The conditions noted are these: C1R-A*02:01.
KMDDPTVNWSI had a thermal melting temperature of 58.8 °C.

Sequence ALLGKLDAINV displayed a thermal melting temperature of 59.8 °C.

For the sequence GLHFVVPSV, the thermal melting temperature worked out at 62.4 °C.

For TLYPGRVIL, the thermal melting temperature came to 58 °C.

In turn, HLLNESPML showed a thermal melting temperature of 60.2 °C.

On to GLLDLPFRVGV, for which the thermal melting temperature was 57.6 °C.

GLYSLSSVVTV registered a thermal melting temperature of 55.3 °C.

The sequence ALVDHLNVGV yielded a thermal melting temperature of 63 °C.

The sequence VLGRVNLV gave a thermal melting temperature of 45.9 °C.

In the case of RLSPVSPAL, the thermal melting temperature was determined as 61.2 °C.

The sequence KMDPIISRV returned a thermal melting temperature of 55.3 °C.

For TLIDLPGITKV, the thermal melting temperature came out at 54.3 °C.

The sequence VLAPHLTRA came in with a thermal melting temperature of 53 °C.

YLPEDFIRVG registered a thermal melting temperature of 46.8 °C.

As to YLLDYPNNLL, the thermal melting temperature was 57.4 °C.

SLYEMVSRV gave a thermal melting temperature of 59.7 °C.

As to TIFAGTLITA, the thermal melting temperature was found to be 52.1 °C.

In turn, KLYQEVEIASV displayed a thermal melting temperature of 61 °C.

With SQLDISEPYKV, the thermal melting temperature worked out at 54 °C.

For WVDETLSSV, the thermal melting temperature is 60.7 °C.

ILLDNDHYA displayed a thermal melting temperature of 50.4 °C.

NQFPGFKEV returned a thermal melting temperature of 55.2 °C.

In turn, KVFDPVPVGV displayed a thermal melting temperature of 57.6 °C.

On to ALFQRPPLI, for which the thermal melting temperature turned out to be 63.4 °C.

Consider FLLLPGPSAA, for which the thermal melting temperature worked out at 47 °C.

Regarding AMNDILAQV, the thermal melting temperature was 62.2 °C.

Sequence YLPPATQVV returned a thermal melting temperature of 60.3 °C.

For the sequence RLAEVGQYEQV, the thermal melting temperature was determined as 56.3 °C.

As to VLQTNDLTSV, the thermal melting temperature came to 55.7 °C.

Sequence RLIEESVTV showed a thermal melting temperature of 61.3 °C.

On to ALAPAPPQV, for which the thermal melting temperature was found to be 62.1 °C.

The sequence TLLTDPPTA returned a thermal melting temperature of 59.5 °C.

With SLHPDLIYNV, the thermal melting temperature was determined as 62 °C.

Take KLDPATSAVTV: the thermal melting temperature was determined as 57.3 °C.

Consider ILQDRLNQV, for which the thermal melting temperature amounted to 56.8 °C.

Take SLHEFLVNL: the thermal melting temperature turned out to be 61.5 °C.

For the sequence VLMQDSRLYL, the thermal melting temperature was 58 °C.

In turn, ALSSVIKEL came in with a thermal melting temperature of 62.4 °C.

Take VMFRTPLASV: the thermal melting temperature came out at 55 °C.

As for TLSERLWGL, the thermal melting temperature worked out at 61.8 °C.

In the case of FLPPAQVTV, the thermal melting temperature is 57.7 °C.

Consider KLDSPRVTV, for which the thermal melting temperature was 54.1 °C.

Sequence GLIDGRLTI had a thermal melting temperature of 54 °C.

The sequence ALVDQRELYL yielded a thermal melting temperature of 59.1 °C.

SLMDPNKFLLL gave a thermal melting temperature of 55.1 °C.

ALPDQGIAKA gave a thermal melting temperature of 50.7 °C.

The sequence SLSEKQYFL came in with a thermal melting temperature of 62.7 °C.

The sequence AMLAVLHTV had a thermal melting temperature of 62.9 °C.

KMWEEAISL displayed a thermal melting temperature of 59.2 °C.

YQLEAEFVGV: the thermal melting temperature amounted to 58.7 °C.

Sequence YLLPAIVHI had a thermal melting temperature of 65.3 °C.

On to VLYGPKIDRA, for which the thermal melting temperature is 50 °C.

The sequence LLFEGEKITI yielded a thermal melting temperature of 55.8 °C.

ILDDSPKEI came in with a thermal melting temperature of 46.6 °C.

NLVEKTPAL: the thermal melting temperature is 54.9 °C.

On to YLNHLEPPV, for which the thermal melting temperature is 62.2 °C.
